Measurements: PMC12820563, “FoxP3 forms a head-to-head dimer in vivo and stabilizes its multimerization on adjacent microsatellites”
The other results are listed elsewhere or left out.

target: T1, MBP-FoxP1dN (Mus musculus, UniProt P58462 326-579); experiment: PD-seq (MBP pull-down with sequencing); 20 mM Tris-HCl pH 7.5, 100 mM NaCl, 1.5 mM MgCl2, 0.4 uM protein, 0.1 uM dsDNA library, 30 min, room temperature, amylose pull-down; high values mean tight binding; conditions: protein: recombinant; tags: His6-MBP; chain copies: 2; dsDNA, one strand shown
T1 sequence: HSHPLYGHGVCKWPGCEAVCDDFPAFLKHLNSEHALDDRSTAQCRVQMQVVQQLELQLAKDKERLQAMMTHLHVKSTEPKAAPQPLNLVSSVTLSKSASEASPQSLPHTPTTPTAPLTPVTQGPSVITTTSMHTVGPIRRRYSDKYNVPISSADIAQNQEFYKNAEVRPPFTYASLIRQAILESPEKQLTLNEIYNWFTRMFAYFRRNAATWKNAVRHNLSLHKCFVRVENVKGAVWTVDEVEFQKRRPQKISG
Summary of the method: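 Protein and DNA were mixed at 0.4 µM and 0.1 µM and held for 30 min at room temperature in Tris pH 7.5 buffer with NaCl and MgCl2; the protein was a His6-MBP-tagged, N-terminally truncated mouse FoxP3 or FoxP1 fragment from E. coli, and the DNA a Klenow-filled double-stranded degenerate library. Amylose resin captured the complexes, which were washed three times. Binding is read as reads-per-million enrichment of pull-down versus input after Illumina sequencing, with replicates pooled.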

Sequence	binding signal
GATGATTGTTCTCCCAGCTGATGAATTCTGCCGTTCGAGTAAACAAATTTTCCTAATCTTTCTGTTCAAGCGCCATCTAC	0.832 RPM ratio (pull-down/input)
GATGATTGTTCTCCCAGCTGATGAATTCGTGCGGTCGAGTAAACAAATTTTCCTAATCTTTCTGTTCAAGCGCCATCTAC	0.799 RPM ratio (pull-down/input)
GATGATTGTTCTCCCAGCTGATGAATTATGTAGATCGAGTAAACAAATTTTCCTAATCTTTCTGTTCAAGCGCCATCTAC	1.06 RPM ratio (pull-down/input)
GATGATTGTTCTCCCAGCTGATGAATTTTTAGAGTCGAGTAAACAAATTTTCCTAATCTTTCTGTTCAAGCGCCATCTAC	0.904 RPM ratio (pull-down/input)
GATGATTGTTCTCCCAGCTGATGAATTACTAGTGTCGAGTAAACAAATTTTCCTAATCTTTCTGTTCAAGCGCCATCTAC	1.13 RPM ratio (pull-down/input)
GATGATTGTTCTCCCAGCTGATGAATTATAACACTCGAGTAAACAAATTTTCCTAATCTTTCTGTTCAAGCGCCATCTAC	1.13 RPM ratio (pull-down/input)
GATGATTGTTCTCCCAGCTGATGAATTGTACCGATCGAGTAAACAAATTTTCCTAATCTTTCTGTTCAAGCGCCATCTAC	1.02 RPM ratio (pull-down/input)
GATGATTGTTCTCCCAGCTGATGAATTTGCCGTCTCGAGTAAACAAATTTTCCTAATCTTTCTGTTCAAGCGCCATCTAC	0.892 RPM ratio (pull-down/input)
GATGATTGTTCTCCCAGCTGATGAATTTGATGCATCGAGTAAACAAATTTTCCTAATCTTTCTGTTCAAGCGCCATCTAC	1.38 RPM ratio (pull-down/input)
GATGATTGTTCTCCCAGCTGATGAATTCATCGTCTCGAGTAAACAAATTTTCCTAATCTTTCTGTTCAAGCGCCATCTAC	0.784 RPM ratio (pull-down/input)
GATGATTGTTCTCCCAGCTGATGAATTTAGTAAGTCGAGTAAACAAATTTTCCTAATCTTTCTGTTCAAGCGCCATCTAC	0.999 RPM ratio (pull-down/input)
GATGATTGTTCTCCCAGCTGATGAATTCGGCCTGTCGAGTAAACAAATTTTCCTAATCTTTCTGTTCAAGCGCCATCTAC	0.781 RPM ratio (pull-down/input)
GATGATTGTTCTCCCAGCTGATGAATTGGGTCGTTCGAGTAAACAAATTTTCCTAATCTTTCTGTTCAAGCGCCATCTAC	0.818 RPM ratio (pull-down/input)
GATGATTGTTCTCCCAGCTGATGAATTTCGTTTCTCGAGTAAACAAATTTTCCTAATCTTTCTGTTCAAGCGCCATCTAC	0.854 RPM ratio (pull-down/input)
GATGATTGTTCTCCCAGCTGATGAATTAGATGTATCGAGTAAACAAATTTTCCTAATCTTTCTGTTCAAGCGCCATCTAC	1.19 RPM ratio (pull-down/input)
GATGATTGTTCTCCCAGCTGATGAATTTGATGGATCGAGTAAACAAATTTTCCTAATCTTTCTGTTCAAGCGCCATCTAC	0.898 RPM ratio (pull-down/input)

Sequence	binding signal
GATGATTGTTCTCCCAGCTGATGAATTTAATATCTCGAGTAAACAAATTTTCCTAATCTTTCTGTTCAAGCGCCATCTAC	0.927 RPM ratio (pull-down/input)
GATGATTGTTCTCCCAGCTGATGAATTGGGGGCGTCGAGTAAACAAATTTTCCTAATCTTTCTGTTCAAGCGCCATCTAC	0.886 RPM ratio (pull-down/input)
GATGATTGTTCTCCCAGCTGATGAATTATCTGTCTCGAGTAAACAAATTTTCCTAATCTTTCTGTTCAAGCGCCATCTAC	0.945 RPM ratio (pull-down/input)
GATGATTGTTCTCCCAGCTGATGAATTTTGACTATCGAGTAAACAAATTTTCCTAATCTTTCTGTTCAAGCGCCATCTAC	1.03 RPM ratio (pull-down/input)
GATGATTGTTCTCCCAGCTGATGAATTGCCAACTTCGAGTAAACAAATTTTCCTAATCTTTCTGTTCAAGCGCCATCTAC	0.959 RPM ratio (pull-down/input)
GATGATTGTTCTCCCAGCTGATGAATTGTTGATCTCGAGTAAACAAATTTTCCTAATCTTTCTGTTCAAGCGCCATCTAC	2.06 RPM ratio (pull-down/input)
GATGATTGTTCTCCCAGCTGATGAATTCATCAGTTCGAGTAAACAAATTTTCCTAATCTTTCTGTTCAAGCGCCATCTAC	0.914 RPM ratio (pull-down/input)
GATGATTGTTCTCCCAGCTGATGAATTTTTCGGCTCGAGTAAACAAATTTTCCTAATCTTTCTGTTCAAGCGCCATCTAC	0.799 RPM ratio (pull-down/input)
GATGATTGTTCTCCCAGCTGATGAATTGACTTGTTCGAGTAAACAAATTTTCCTAATCTTTCTGTTCAAGCGCCATCTAC	1.08 RPM ratio (pull-down/input)
GATGATTGTTCTCCCAGCTGATGAATTGAGTGGATCGAGTAAACAAATTTTCCTAATCTTTCTGTTCAAGCGCCATCTAC	0.83 RPM ratio (pull-down/input)
GATGATTGTTCTCCCAGCTGATGAATTATCGTCGTCGAGTAAACAAATTTTCCTAATCTTTCTGTTCAAGCGCCATCTAC	0.884 RPM ratio (pull-down/input)
GATGATTGTTCTCCCAGCTGATGAATTAAAGTTGTCGAGTAAACAAATTTTCCTAATCTTTCTGTTCAAGCGCCATCTAC	1.42 RPM ratio (pull-down/input)
GATGATTGTTCTCCCAGCTGATGAATTATAAGGCTCGAGTAAACAAATTTTCCTAATCTTTCTGTTCAAGCGCCATCTAC	1.02 RPM ratio (pull-down/input)
GATGATTGTTCTCCCAGCTGATGAATTCCCTAGATCGAGTAAACAAATTTTCCTAATCTTTCTGTTCAAGCGCCATCTAC	0.854 RPM ratio (pull-down/input)
GATGATTGTTCTCCCAGCTGATGAATTCCCCACGTCGAGTAAACAAATTTTCCTAATCTTTCTGTTCAAGCGCCATCTAC	0.874 RPM ratio (pull-down/input)
